Paper PMC12820563, “FoxP3 forms a head-to-head dimer in vivo and stabilizes its multimerization on adjacent microsatellites”
The list shows a part of the results.

These sequences were tested against T1, MBP-FoxP1dN (Mus musculus, UniProt P58462 326-579) (assay: PD-seq (MBP pull-down with sequencing); 20 mM Tris-HCl pH 7.5, 100 mM NaCl, 1.5 mM MgCl2, 0.4 uM protein, 0.1 uM dsDNA library, 30 min, room temperature, amylose pull-down; high values mean tight binding). Settings: protein: recombinant; tags: His6-MBP; chain copies: 2; dsDNA, one strand shown.
T1 sequence: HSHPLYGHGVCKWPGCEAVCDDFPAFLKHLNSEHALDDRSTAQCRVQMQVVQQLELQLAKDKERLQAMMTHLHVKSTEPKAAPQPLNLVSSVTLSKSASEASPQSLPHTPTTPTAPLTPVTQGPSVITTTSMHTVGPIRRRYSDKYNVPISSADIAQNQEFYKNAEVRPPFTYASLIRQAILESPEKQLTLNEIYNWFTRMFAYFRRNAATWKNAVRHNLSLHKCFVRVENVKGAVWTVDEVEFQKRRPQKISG
Outline: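 Binding is the reads-per-million enrichment of pull-down relative to input, pooled across replicates. For this, 0.4 µM His6-MBP-tagged mouse FoxP3 or FoxP1 fragment lacking the N-terminus, made in E. coli, was incubated with 0.1 µM Klenow-filled double-stranded degenerate DNA library for 30 min at room temperature in Tris pH 7.5 buffer with NaCl and MgCl2. Complexes bound to amylose resin were washed three times before proteinase K released the DNA for PCR barcoding and Illumina sequencing.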
With “GATGATTGTTCTCCCAGCTGATGAATTAGCTGCCTCGAGTAAACAAATTTTCCTAATCTTTCTGTTCAAGCGCCATCTAC” the binding signal was 0.874 RPM ratio (pull-down/input). For “GATGATTGTTCTCCCAGCTGATGAATTTCGAGATTCGAGTAAACAAATTTTCCTAATCTTTCTGTTCAAGCGCCATCTAC”, the binding signal was 0.796 RPM ratio (pull-down/input). In the case of “GATGATTGTTCTCCCAGCTGATGAATTAGCTGGATCGAGTAAACAAATTTTCCTAATCTTTCTGTTCAAGCGCCATCTAC”, the binding signal is reported as 0.767 RPM ratio (pull-down/input). “GATGATTGTTCTCCCAGCTGATGAATTCGACCACTCGAGTAAACAAATTTTCCTAATCTTTCTGTTCAAGCGCCATCTAC” was tested, and the binding signal was 0.809 RPM ratio (pull-down/input). “GATGATTGTTCTCCCAGCTGATGAATTGATTACCTCGAGTAAACAAATTTTCCTAATCTTTCTGTTCAAGCGCCATCTAC” was tested, and the binding signal was 1.39 RPM ratio (pull-down/input). With “GATGATTGTTCTCCCAGCTGATGAATTACACGTTTCGAGTAAACAAATTTTCCTAATCTTTCTGTTCAAGCGCCATCTAC” the binding signal was 1.24 RPM ratio (pull-down/input). With “GATGATTGTTCTCCCAGCTGATGAATTATCCTGCTCGAGTAAACAAATTTTCCTAATCTTTCTGTTCAAGCGCCATCTAC” the binding signal was 0.904 RPM ratio (pull-down/input). With “GATGATTGTTCTCCCAGCTGATGAATTGTTTTCTTCGAGTAAACAAATTTTCCTAATCTTTCTGTTCAAGCGCCATCTAC” the binding signal was 2.03 RPM ratio (pull-down/input). “GATGATTGTTCTCCCAGCTGATGAATTCGCGATTTCGAGTAAACAAATTTTCCTAATCTTTCTGTTCAAGCGCCATCTAC” was tested, and the binding signal was 0.941 RPM ratio (pull-down/input). With “GATGATTGTTCTCCCAGCTGATGAATTGGCTGGCTCGAGTAAACAAATTTTCCTAATCTTTCTGTTCAAGCGCCATCTAC” the binding signal was 0.797 RPM ratio (pull-down/input). With “GATGATTGTTCTCCCAGCTGATGAATTGGCAAGGTCGAGTAAACAAATTTTCCTAATCTTTCTGTTCAAGCGCCATCTAC” the binding signal was 0.794 RPM ratio (pull-down/input). With “GATGATTGTTCTCCCAGCTGATGAATTTCGGAGCTCGAGTAAACAAATTTTCCTAATCTTTCTGTTCAAGCGCCATCTAC” the binding signal was 0.743 RPM ratio (pull-down/input). “GATGATTGTTCTCCCAGCTGATGAATTCTTGTCGTCGAGTAAACAAATTTTCCTAATCTTTCTGTTCAAGCGCCATCTAC” was tested, and the binding signal was 1.18 RPM ratio (pull-down/input). In the case of “GATGATTGTTCTCCCAGCTGATGAATTCTAGCTATCGAGTAAACAAATTTTCCTAATCTTTCTGTTCAAGCGCCATCTAC”, the binding signal is reported as 1.02 RPM ratio (pull-down/input). “GATGATTGTTCTCCCAGCTGATGAATTTGTAAATTCGAGTAAACAAATTTTCCTAATCTTTCTGTTCAAGCGCCATCTAC” was tested, and the binding signal was 1.28 RPM ratio (pull-down/input). “GATGATTGTTCTCCCAGCTGATGAATTGTAGTCTTCGAGTAAACAAATTTTCCTAATCTTTCTGTTCAAGCGCCATCTAC” was tested, and the binding signal was 1.11 RPM ratio (pull-down/input). In the case of “GATGATTGTTCTCCCAGCTGATGAATTCTCCTATTCGAGTAAACAAATTTTCCTAATCTTTCTGTTCAAGCGCCATCTAC”, the binding signal is reported as 0.943 RPM ratio (pull-down/input). With “GATGATTGTTCTCCCAGCTGATGAATTGGGCAAATCGAGTAAACAAATTTTCCTAATCTTTCTGTTCAAGCGCCATCTAC” the binding signal was 0.975 RPM ratio (pull-down/input). With “GATGATTGTTCTCCCAGCTGATGAATTTCACTTATCGAGTAAACAAATTTTCCTAATCTTTCTGTTCAAGCGCCATCTAC” the binding signal was 0.993 RPM ratio (pull-down/input). For “GATGATTGTTCTCCCAGCTGATGAATTCACAGATTCGAGTAAACAAATTTTCCTAATCTTTCTGTTCAAGCGCCATCTAC”, the binding signal was 0.901 RPM ratio (pull-down/input). In the case of “GATGATTGTTCTCCCAGCTGATGAATTTAAATACTCGAGTAAACAAATTTTCCTAATCTTTCTGTTCAAGCGCCATCTAC”, the binding signal is reported as 0.992 RPM ratio (pull-down/input). In the case of “GATGATTGTTCTCCCAGCTGATGAATTTAGTTCATCGAGTAAACAAATTTTCCTAATCTTTCTGTTCAAGCGCCATCTAC”, the binding signal is reported as 0.956 RPM ratio (pull-down/input). “GATGATTGTTCTCCCAGCTGATGAATTTATATGCTCGAGTAAACAAATTTTCCTAATCTTTCTGTTCAAGCGCCATCTAC” was tested, and the binding signal was 1.1 RPM ratio (pull-down/input). With “GATGATTGTTCTCCCAGCTGATGAATTAGCTCGTTCGAGTAAACAAATTTTCCTAATCTTTCTGTTCAAGCGCCATCTAC” the binding signal was 0.856 RPM ratio (pull-down/input). With “GATGATTGTTCTCCCAGCTGATGAATTGGCGGCATCGAGTAAACAAATTTTCCTAATCTTTCTGTTCAAGCGCCATCTAC” the binding signal was 1.08 RPM ratio (pull-down/input). In the case of “GATGATTGTTCTCCCAGCTGATGAATTAAGGATATCGAGTAAACAAATTTTCCTAATCTTTCTGTTCAAGCGCCATCTAC”, the binding signal is reported as 0.989 RPM ratio (pull-down/input). For “GATGATTGTTCTCCCAGCTGATGAATTGATTTACTCGAGTAAACAAATTTTCCTAATCTTTCTGTTCAAGCGCCATCTAC”, the binding signal was 1.25 RPM ratio (pull-down/input). For “GATGATTGTTCTCCCAGCTGATGAATTACCACCCTCGAGTAAACAAATTTTCCTAATCTTTCTGTTCAAGCGCCATCTAC”, the binding signal was 0.889 RPM ratio (pull-down/input). For “GATGATTGTTCTCCCAGCTGATGAATTCAGTAGCTCGAGTAAACAAATTTTCCTAATCTTTCTGTTCAAGCGCCATCTAC”, the binding signal was 0.872 RPM ratio (pull-down/input). “GATGATTGTTCTCCCAGCTGATGAATTTTTTGACTCGAGTAAACAAATTTTCCTAATCTTTCTGTTCAAGCGCCATCTAC” was tested, and the binding signal was 0.935 RPM ratio (pull-down/input). For “GATGATTGTTCTCCCAGCTGATGAATTACTGGATTCGAGTAAACAAATTTTCCTAATCTTTCTGTTCAAGCGCCATCTAC”, the binding signal was 1.07 RPM ratio (pull-down/input). In the case of “GATGATTGTTCTCCCAGCTGATGAATTGTGATGGTCGAGTAAACAAATTTTCCTAATCTTTCTGTTCAAGCGCCATCTAC”, the binding signal is reported as 1.16 RPM ratio (pull-down/input). With “GATGATTGTTCTCCCAGCTGATGAATTCGGAGTATCGAGTAAACAAATTTTCCTAATCTTTCTGTTCAAGCGCCATCTAC” the binding signal was 0.921 RPM ratio (pull-down/input). In the case of “GATGATTGTTCTCCCAGCTGATGAATTCCGCAATTCGAGTAAACAAATTTTCCTAATCTTTCTGTTCAAGCGCCATCTAC”, the binding signal is reported as 0.961 RPM ratio (pull-down/input). For “GATGATTGTTCTCCCAGCTGATGAATTTGGCCGATCGAGTAAACAAATTTTCCTAATCTTTCTGTTCAAGCGCCATCTAC”, the binding signal was 0.872 RPM ratio (pull-down/input). For “GATGATTGTTCTCCCAGCTGATGAATTCAGTCAATCGAGTAAACAAATTTTCCTAATCTTTCTGTTCAAGCGCCATCTAC”, the binding signal was 1.12 RPM ratio (pull-down/input). “GATGATTGTTCTCCCAGCTGATGAATTGGTAACCTCGAGTAAACAAATTTTCCTAATCTTTCTGTTCAAGCGCCATCTAC” was tested, and the binding signal was 0.912 RPM ratio (pull-down/input). In the case of “GATGATTGTTCTCCCAGCTGATGAATTCACCAGTTCGAGTAAACAAATTTTCCTAATCTTTCTGTTCAAGCGCCATCTAC”, the binding signal is reported as 0.884 RPM ratio (pull-down/input). With “GATGATTGTTCTCCCAGCTGATGAATTTATGGGATCGAGTAAACAAATTTTCCTAATCTTTCTGTTCAAGCGCCATCTAC” the binding signal was 0.919 RPM ratio (pull-down/input). In the case of “GATGATTGTTCTCCCAGCTGATGAATTCAACAAATCGAGTAAACAAATTTTCCTAATCTTTCTGTTCAAGCGCCATCTAC”, the binding signal is reported as 1.29 RPM ratio (pull-down/input).
